From PMC9911399, “Two distinct binding modes provide the RNA-binding protein RbFox with extraordinary sequence specificity”
Residue numbers refer to the chain shown, from its start. The list shows a part of the results.

T1: RBFOX1 RRM RbFoxmut (Fox-RRM*) (Homo sapiens, UniProt Q9NWB1 109-208, R118D;E147R;N151S;E152T)
T1 sequence: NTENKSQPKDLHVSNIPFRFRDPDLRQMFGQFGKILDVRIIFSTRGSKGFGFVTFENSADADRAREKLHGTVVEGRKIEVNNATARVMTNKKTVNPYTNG

B1: CAAGCUU (DNA:RNA)
RNA: GGGAGACCGGAAUUCAGAUUGUCCCAAGCUUUUAAAUCCCGUCGUAGCCACCA
DNA 1: CAATCTGAATTCCGGTCTCCC
DNA 2: TGGTGGCTACGACGGGATT
B2: GGGUCCC (DNA:RNA)
RNA: B1 RNA with C25G, A26G, A27G, G28U, U30C, U31C
DNA 1: CAATCTGAATTCCGGTCTCCC
DNA 2: TGGTGGCTACGACGGGATT
B3: CGUUAAC (DNA:RNA)
RNA: B1 RNA with A26G, A27U, G28U, C29A, U30A, U31C
DNA 1: CAATCTGAATTCCGGTCTCCC
DNA 2: TGGTGGCTACGACGGGATT
B4: AAGACCA (DNA:RNA)
RNA: B1 RNA with C25A, A27G, G28A, U30C, U31A
DNA 1: CAATCTGAATTCCGGTCTCCC
DNA 2: TGGTGGCTACGACGGGATT
B5: CUCGCUA (DNA:RNA)
RNA: B1 RNA with A26U, A27C, U31A
DNA 1: CAATCTGAATTCCGGTCTCCC
DNA 2: TGGTGGCTACGACGGGATT
B6: CUCUUGU (DNA:RNA)
RNA: B1 RNA with A26U, A27C, G28U, C29U, U30G
DNA 1: CAATCTGAATTCCGGTCTCCC
DNA 2: TGGTGGCTACGACGGGATT
B7: GAAAAGA (DNA:RNA)
RNA: B1 RNA with C25G, G28A, C29A, U30G, U31A
DNA 1: CAATCTGAATTCCGGTCTCCC
DNA 2: TGGTGGCTACGACGGGATT
B8: GGCCCGA (DNA:RNA)
RNA: B1 RNA with C25G, A26G, A27C, G28C, U30G, U31A
DNA 1: CAATCTGAATTCCGGTCTCCC
DNA 2: TGGTGGCTACGACGGGATT
B9: GCAAUUU (DNA:RNA)
RNA: B1 RNA with C25G, A26C, G28A, C29U
DNA 1: CAATCTGAATTCCGGTCTCCC
DNA 2: TGGTGGCTACGACGGGATT
B10: AUAUUUA (DNA:RNA)
RNA: B1 RNA with C25A, A26U, G28U, C29U, U31A
DNA 1: CAATCTGAATTCCGGTCTCCC
DNA 2: TGGTGGCTACGACGGGATT
B11: CUAUUAU (DNA:RNA)
RNA: B1 RNA with A26U, G28U, C29U, U30A
DNA 1: CAATCTGAATTCCGGTCTCCC
DNA 2: TGGTGGCTACGACGGGATT
B12: GUUUAGU (DNA:RNA)
RNA: B1 RNA with C25G, A26U, A27U, G28U, C29A, U30G
DNA 1: CAATCTGAATTCCGGTCTCCC
DNA 2: TGGTGGCTACGACGGGATT
B13: GGAACGA (DNA:RNA)
RNA: B1 RNA with C25G, A26G, G28A, U30G, U31A
DNA 1: CAATCTGAATTCCGGTCTCCC
DNA 2: TGGTGGCTACGACGGGATT
B14: AGGGGGU (DNA:RNA)
RNA: B1 RNA with C25A, A26G, A27G, C29G, U30G
DNA 1: CAATCTGAATTCCGGTCTCCC
DNA 2: TGGTGGCTACGACGGGATT
B15: UAGUCCC (DNA:RNA)
RNA: B1 RNA with C25U, A27G, G28U, U30C, U31C
DNA 1: CAATCTGAATTCCGGTCTCCC
DNA 2: TGGTGGCTACGACGGGATT
B16: UAUGCCU (DNA:RNA)
RNA: B1 RNA with C25U, A27U, U30C
DNA 1: CAATCTGAATTCCGGTCTCCC
DNA 2: TGGTGGCTACGACGGGATT
B17: AUACGCC (DNA:RNA)
RNA: B1 RNA with C25A, A26U, G28C, C29G, U30C, U31C
DNA 1: CAATCTGAATTCCGGTCTCCC
DNA 2: TGGTGGCTACGACGGGATT
B18: GUAUGGA (DNA:RNA)
RNA: B1 RNA with C25G, A26U, G28U, C29G, U30G, U31A
DNA 1: CAATCTGAATTCCGGTCTCCC
DNA 2: TGGTGGCTACGACGGGATT
B19: AUUGGCA (DNA:RNA)
RNA: B1 RNA with C25A, A26U, A27U, C29G, U30C, U31A
DNA 1: CAATCTGAATTCCGGTCTCCC
DNA 2: TGGTGGCTACGACGGGATT
B20: UCGACGC (DNA:RNA)
RNA: B1 RNA with C25U, A26C, A27G, G28A, U30G, U31C
DNA 1: CAATCTGAATTCCGGTCTCCC
DNA 2: TGGTGGCTACGACGGGATT
B21: GCCGAAA (DNA:RNA)
RNA: B1 RNA with C25G, A26C, A27C, C29A, U30A, U31A
DNA 1: CAATCTGAATTCCGGTCTCCC
DNA 2: TGGTGGCTACGACGGGATT
B22: ACUAUAC (DNA:RNA)
RNA: GGGAGACCGGAAUUCAGAUUGUCCACUAUACUUAAAUCCCGUCGUAGCCACCA
DNA 1: CAATCTGAATTCCGGTCTCCC
DNA 2: TGGTGGCTACGACGGGATT
B23: UAUGUAG (DNA:RNA)
RNA: B22 RNA with A25U, C26A, A28G, C31G
DNA 1: CAATCTGAATTCCGGTCTCCC
DNA 2: TGGTGGCTACGACGGGATT
B24: UGAUACU (DNA:RNA)
RNA: B1 RNA with C25U, A26G, G28U, C29A, U30C
DNA 1: CAATCTGAATTCCGGTCTCCC
DNA 2: TGGTGGCTACGACGGGATT
B25: GUGCUCU (DNA:RNA)
RNA: B22 RNA with A25G, C26U, U27G, A28C, A30C, C31U
DNA 1: CAATCTGAATTCCGGTCTCCC
DNA 2: TGGTGGCTACGACGGGATT
B26: UCGUGAA (DNA:RNA)
RNA: B22 RNA with A25U, U27G, A28U, U29G, C31A
DNA 1: CAATCTGAATTCCGGTCTCCC
DNA 2: TGGTGGCTACGACGGGATT
B27: GCGCGGU (DNA:RNA)
RNA: B22 RNA with A25G, U27G, A28C, U29G, A30G, C31U
DNA 1: CAATCTGAATTCCGGTCTCCC
DNA 2: TGGTGGCTACGACGGGATT
B28: AAAGUCA (DNA:RNA)
RNA: B1 RNA with C25A, C29U, U30C, U31A
DNA 1: CAATCTGAATTCCGGTCTCCC
DNA 2: TGGTGGCTACGACGGGATT
B29: AAAGGGG (DNA:RNA)
RNA: B1 RNA with C25A, C29G, U30G, U31G
DNA 1: CAATCTGAATTCCGGTCTCCC
DNA 2: TGGTGGCTACGACGGGATT
B30: UCGCACC (DNA:RNA)
RNA: B22 RNA with A25U, U27G, A28C, U29A, A30C
DNA 1: CAATCTGAATTCCGGTCTCCC
DNA 2: TGGTGGCTACGACGGGATT
B31: AGGCCGA (DNA:RNA)
RNA: B22 RNA with C26G, U27G, A28C, U29C, A30G, C31A
DNA 1: CAATCTGAATTCCGGTCTCCC
DNA 2: TGGTGGCTACGACGGGATT

Biological target: T1, RBFOX1 RRM RbFoxmut (Fox-RRM*)
Assay: EMSA; HiTS-Eq, 1 nM pool, 10 min; buffer printed only for the single-RNA assays: 10 mM Tris pH 7.5, 150 mM NaCl, 3.4 mM EDTA, 0.001% NP-40, 30 C
Conditions: tags: His6 N-terminal (pET28a); label: 5' 32P
Outline: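 Relative association constants, normalised to the cognate motif, were derived by comparing read counts of each RNA species with those of the control reaction. The RNA sequenced was the free fraction, separated by 8% native PAGE after a 10 min equilibration in 50 µL of 1 nM 5′-radiolabelled RNA (7 randomized nucleotides) with increasing concentrations of purified wild-type or mutant RbFox RRM.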

Binder | binding signal
B1 | 0.092 KA relative to UGCAUGU
B2 | 0.103 KA relative to UGCAUGU
B3 | 0.117 KA relative to UGCAUGU
B4 | 0.0646 KA relative to UGCAUGU
B5 | 0.106 KA relative to UGCAUGU
B6 | 0.169 KA relative to UGCAUGU
B7 | 0.0705 KA relative to UGCAUGU
B8 | 0.11 KA relative to UGCAUGU
B9 | 0.0577 KA relative to UGCAUGU
B10 | 0.153 KA relative to UGCAUGU
B11 | 0.119 KA relative to UGCAUGU
B12 | 0.154 KA relative to UGCAUGU
B13 | 0.286 KA relative to UGCAUGU
B14 | 0.13 KA relative to UGCAUGU
B15 | 0.0626 KA relative to UGCAUGU
B16 | 0.0911 KA relative to UGCAUGU

Binder | binding signal
B17 | 0.0769 KA relative to UGCAUGU
B18 | 0.0822 KA relative to UGCAUGU
B19 | 0.137 KA relative to UGCAUGU
B20 | 0.0785 KA relative to UGCAUGU
B21 | 0.0996 KA relative to UGCAUGU
B22 | 0.136 KA relative to UGCAUGU
B23 | 0.131 KA relative to UGCAUGU
B24 | 0.112 KA relative to UGCAUGU
B25 | 0.0834 KA relative to UGCAUGU
B26 | 0.122 KA relative to UGCAUGU
B27 | 0.125 KA relative to UGCAUGU
B28 | 0.109 KA relative to UGCAUGU
B29 | 0.0723 KA relative to UGCAUGU
B30 | 0.132 KA relative to UGCAUGU
B31 | 0.0992 KA relative to UGCAUGU
